Laboratory results from the supplement of paper PMC10126150.
Values marked as one replicate rest on one cluster of the flow cell; about a third of the high ones do not repeat.

Test system: ATP
Test: switch fluorescence ratio, 500 uM ATP over buffer (Cy3 cluster intensity, sum of 5 cycles each) (fold (ratio)); higher = stronger signal-on switching upon ATP binding; sequences stand for … in TCGTCGGCAGCGTCAGATGTGTATAAGAGACAGTTTTTTTTTTTTTTTTTTTTTTTTT…TC
Conditions: aptamer strand: ATP DNA aptamer (quencher-CACCTGGGGGAGTATTGCGGAGGAAGG + anchor), 100 nM annealed; ATP concentration: 500 uM; one replicate
In short: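 Exposure to 500 uM ATP lasted 15 min at 22 °C before imaging, and a selection-buffer image was taken beforehand, for Cy3-labelled switching-strand clusters on a modified Illumina MiSeq flow-cell annealed to 100 nM quencher-labelled ATP aptamer. Five buffer/ATP cycles were run with NaOH stripping and re-annealing between them. The fluorescence ratio per cluster is summed target-cycle over summed buffer-cycle Cy3 intensity, averaged per switch-domain sequence. Clusters outside 100-1000 RFU were excluded.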

Sequence	switch fluorescence ratio
GCCTAGCGCT	1.29
TCAGGAACGA	0.954
TAAGAGTGCG	0.994
ATTGTACTCA	1
ACTACGAAAG	1.12
GCCATTATAC	1.49
AAGCACTTTA	1.16
TCCCGGCCCG	0.965
AATACTTAA	1.06
GTGATATGTA	0.957
CAAGTTGTT	0.959
GGCGCTAAGT	0.981
TCCCGGATGT	1.03
GACACCGGCT	1.05
GAGTGGGCCG	1.01
GTGCATATGC	1.02
GTTTTATGCC	1.01
CCTTTGAGTT	0.967
TGTAGGTA	0.93
TGATGGCTGG	0.999
TATGTGCATT	0.953
ACGCTTTGGG	1.02
AGTTTAATG	0.99
AGGGGCCGTG	0.965
GGTACCACGT	0.965
GAGCGGCGTC	1.13

Sequence	switch fluorescence ratio
TGGATAGGGA	0.991
GCGCGCTTAG	0.99
CCAACGGCAG	1.15
CGGGAAGATC	1.14
GGGTAGCGTA	0.993
GGTTGTCTTC	0.985
TTGTTTAAGG	0.956
ATTTCATGAT	0.979
GTAGCTGCTG	1
GACGTGGCCT	1.03
AGATATAGGC	0.995
CCATTACGAT	1.06
TTAATTACGT	1.05
ACACCCAGTA	1.11
TTCATTTGGA	0.985
TGGGAAGAAC	0.969
TCGGAAGGGA	0.976
GGGATCTTGG	0.987
CGATGAGGCA	1.03
GAAGCGATCG	0.991
GGGTACATAT	1.07
AAAATGCTT	1.01
CATGGCTTCC	2.16
CACGGCCGTA	1.08
AGAATTGCCC	1.05
CCGGGCACAG	1.32

Sequence	switch fluorescence ratio
AGTACACTAT	1.04
GGAGCCAATC	2.65
CGACTTAAAA	1.02
ATAGACGGTC	1.09
TGAGTCTCCT	1.05
CAGTTGGCCC	1.01
ACCTGGAAC	1.08
ATAGGCAATT	1.04
AATGTATGGC	1.08
TTGCATGAAG	1.01
TCGTATGAGA	1.01
TCCAAGAGAA	1.03
GCAATGCGTG	1.11
GGGTCCGGGT	1
CCTCTCTCGA	1.67
CACGATCGTG	0.984
TAAGCGGGTT	1.01
ACTTTTATG	0.973
CTGTTGCCTC	1.02
GGATGGATCG	0.987
GTCGATGTTT	0.954
GTGTCGGGTG	1.02
TCGTATTAT	0.982
GGCGTTAACT	1.03
CCTCGTGGCC	1.13
GGCTAGCGAT	1.03

Sequence	switch fluorescence ratio
CGAGCTACAT	1.13
AGATTATTT	0.969
CCTGGCGCAT	4.68
TCCGCGGCCT	1.46
TGGCCCTTTA	1.01
TACTGATATG	0.893
GGGCTGACCC	0.974
AATAGCGATG	0.994
CAAGTAAAAC	1.06
CAGATACGTT	1.04
GGTGTATCGG	0.985
ATTAGCCTTC	1.14
AGAGGTTTTA	0.994
CGGGTGACGT	1.02
GGGGATTCAG	1.03
CTTTTTTTCA	1.06
CTCCCTGGTC	1.71
AATTGAGCGG	0.983
CACAGTCGGC	1.07
GGCGCCTGAA	1
GGTGCTTGG	1.04
AAGGTAGCTC	1.05
TATCTGATA	0.986
TCCAACACGG	1.01
TCATCCTAAA	1.18
TTGTGCGGTT	0.995

Sequence	switch fluorescence ratio
GTATAGTGTC	0.852
ACTCAGCTGA	1.07
ACGACTGACG	1.16
TTACTCGGAC	1.06
CTACTTAGGC	1.01
AAGCTTAGGG	1.01
TTGTTCGCG	0.997
TCCCAGTTGA	1.21
GCTGGTGCA	1.03
CAATGATCTA	0.967
ACCCAACGTC	1.29
AGGAAGGGCG	1.12
TATCCCCGTT	1.02
TCTAGGGGTC	0.958
GTAGGTTGAA	0.951
ATCGGTTTTT	0.997
GATAAAGA	1.02
GATAAGTC	1.09
GAAGGATTG	1.03
CCCATAAGTT	1.01
GGAAGATCGT	0.99
CGGGCGAGGC	0.993
ACCCCCCTAC	1.4
AAGGATGGTC	0.992
AGATGTTTGC	1.01
ATCTGAGAGT	0.989

Sequence	switch fluorescence ratio
ATCGCTGTGG	1.02
CAACGCCTGA	1.03
GTTAGAGGCA	0.975
ACGAGAAAAG	0.998
TGAATCGGCC	1.02
TTAATGATCT	0.986
GAAAATCGAA	1.36
GCAACCGCTA	1.26
TATCACCGTG	1.02
AGAGTCCCTA	1.01
GGTGGAGACT	0.987
TGCGTTTCAG	0.953
ACAGAGTGCT	1.02
CTCGAAACCG	1.03
CAGATCATTG	1
TTACTAGAGG	0.988
TTTAACCTGT	1.04
TTCGACATAT	0.99
TTCGTATCGT	1.01
TCGCTGGGGC	1.02
CCATGACTGT	0.959
GACCGTACAT	1.41
GAGGGTAG	1.02
GTTACCAGCC	1.15
GTTCAAGAAA	0.991
AAAGACACGT	1.03

Sequence	switch fluorescence ratio
AGAAAAGAGC	1.03
TTTTTGTCAA	0.985
TTACAATGGG	1.03
CTGTTTGAGT	0.971
CAATAAATGT	1.05
TAAATGCGAG	1.01
TGAGTCAGTC	0.974
CGCACTGAGC	1.19
TCCATTTGGG	0.977
TAGTACATTG	0.979
CATTGGTCA	0.99
TAAGCGAATC	1.11
TTGAGTGGCG	0.922
GCGTTGATAG	1.01
ATTAAAGTAC	1.19
ATCCCTTAGG	1.62
AAATGCACGG	1.12
TTATTAGTTC	1.01
TGAAATTAGG	0.971
GTGGATCAGG	1.06
AGCTGTGGGG	0.991
CATGTCTGT	0.985
GCGAGAAAGG	0.965
TAGCCAGAGC	0.978
CTTGCGGCG	1.06
AGTACGCTGG	0.948

Sequence	switch fluorescence ratio
ACCGGCTCGC	1.29
GTTTGTACAG	0.971
TTTGGACTTT	1.01
CAAGTCTTAA	1.05
GCAATCAATC	1.37
ACGGGGTATA	1.04
AATAGGGAAG	1.03
CTCGACATTC	1.36
CGACGTCCGA	1.04
CTGTTCTACA	0.987
TCGCTACCGT	1.01
CCGGGAAAAG	1.06
CGACCAGACA	1.1
CGGAAAAAAA	0.935
TGCTTTGACT	0.972
CTAGATTGTT	0.986
CAGTGATCTG	0.966
TCGTTTCAGG	0.991
GGGTTCGAGT	1.01
